{"source": "PubChem BioAssay AID1963576", "about": "(National Center for Advancing Translational Sciences (NCATS), 2024)", "note": "The campaign covered roughly 46,000 compounds. About 60 (0.1%) were called active. This list was built around the results that the source calls inconclusive (neither active nor inactive); the mix of calls is not that of the screen. The call rests on the fitted dose curve; in most records, active means well fitted inhibition curve with a large enough effect; inconclusive means small, poorly fitted or top-dose-only effect; inactive means no such curve, though single readings can be large or run the other way. Potencies of inconclusive entries are left out as doubtful fits. Potency means the concentration at half of the fitted maximal effect; tags describe the fitted curve by direction and shape.", "data": [{"experiment": "Primary qHTS assay for Inhibitors of ovarian cancer metastasis using an organotypic tumor microenvironment (TME) model; further: nearly all actives have a fitted effect of over 65% in size;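 on Potency: count of GFP cancer cells still attached after washing and fixation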.", "details": "SKOV3ip1-GFP adhesion/invasion on 3D omental model, fluorescence; series mostly up to 45.8 µM", "procedure,_shortened": "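A 3D layer of primary human omental fibroblasts, mesothelial cells, fibronectin and collagen I, grown 48 hr, received SKOV3ip1-GFP cells in serum-free medium plus compounds at 0.36-46 umol/L. After 2 hr RT and 16 hr 37 C, fixed adherent GFP cells were counted; normalized to DMSO and tomatine.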", "values": [{"smiles": "COc1ccc(-c2csc3ncnc(Nc4cc(OC)cc(OC)c4)c23)cc1", "Potency": "inconclusive [inhibitor, single point]"}, {"smiles": "Cc1ccc2c(c1)-c1c(c(C(=O)N3CCN(c4cc(C)ccc4C)CC3)nn1C)CS2", "Potency": "inconclusive [inhibitor, single point]"}, {"smiles": "COc1ccc(Nc2nc3ccc(Cl)cc3nc2-n2nc(C)cc2C)cc1", "Potency": "inconclusive [inhibitor, single point]"}, {"smiles": "Cc1nn2c(=O)cc(COC(=O)c3ccccc3NC(=O)c3cccs3)nc2s1", "Potency": "inactive"}, {"smiles": "COc1cc2c(Oc3ccc(-c4cnc(Nc5ccc(F)cc5)n(C)c4=O)cc3F)ccnc2cc1OCCCN1CCOCC1", "Potency": "inconclusive [inhibitor, partial curve]"}, {"smiles": "COC(=O)C1=C(C)N=C2SCCC(=O)N2C1c1ccc(OCc2ccccc2)c(OC)c1", "note": "(stereo not drawn)", "Potency": "inactive"}, {"smiles": "COc1ccc(N2CC(NC(=O)COc3ccc(F)cc3)CC2=O)cc1OC", "note": "(stereo not drawn)", "Potency": "inconclusive [inhibitor, single point]"}, {"smiles": "COc1ccc(-n2c(/C=C/c3cccc(C(F)(F)F)c3)nc3ccccc3c2=O)cc1Cl", "Potency": "inconclusive [inhibitor, single point]"}, {"smiles": "Cc1cccc(-c2noc(-c3ccc(NCc4ccco4)c([N+](=O)[O-])c3)n2)c1", "Potency": "inconclusive [inhibitor, single point]"}, {"smiles": "Cc1ccc(C)c(OCCn2c(C3CC(=O)N(Cc4ccc(F)cc4)C3)nc3ccccc32)c1", "note": "(stereo not drawn)", "Potency": "inconclusive [inhibitor, single point]"}, {"smiles": "Cc1cc(C)c(NC(=O)CSc2nc3ccccc3c3nc(CCn4cncc4C)nn23)c(C)c1", "Potency": "inactive"}, {"smiles": "COc1ccc(-c2n[nH]c3c2C(c2ccc(Cl)cc2Cl)NC3=O)cc1", "note": "(stereo not drawn)", "Potency": "inactive"}, {"smiles": "CCCCC(=O)Nc1cc(-c2nc3ccccc3o2)ccc1OC", "Potency": "inconclusive [inhibitor, single point]"}, {"smiles": "O=C(Nc1cc(-c2nc3ccccc3o2)ccc1Cl)c1cccc2c(Cl)cccc12", "Potency": "inactive"}, {"smiles": "O=C(Cn1cc(SCc2cccc(C(F)(F)F)c2)c2ccccc21)N1CCCCCC1", "Potency": "inconclusive [inhibitor, single point]"}, {"smiles": "Cc1ccc(NC(=O)CCc2c(C)nn(-c3ccc(N4CCCCC4)nn3)c2C)cc1F", "Potency": "inactive"}, {"smiles": "COC(=O)c1c(C)oc2c1cc(NS(=O)(=O)c1c(C)cc(C)cc1C)c1ccccc12", "Potency": "inconclusive [inhibitor, single point]"}, {"smiles": "COCCn1c(CNC(=O)c2cc([N+](=O)[O-])ccc2Cl)nc2cccnc21", "Potency": "inactive"}, {"smiles": "CCOc1ccc(C2=C(C(C)=O)Sc3nnc(C)n3N2C(C)=O)cc1", "Potency": "inconclusive [inhibitor, single point]"}, {"smiles": "CCN(Cc1ccccc1)C(=O)CN1C(=O)COc2ccc(S(=O)(=O)N3CCOCC3)cc21", "Potency": "inconclusive [inhibitor, single point]"}, {"smiles": "CCCOc1ccc(C(=O)Nc2cccc(NC(=O)c3ccc(Cl)cc3Cl)c2)cc1", "Potency": "inconclusive [inhibitor, single point]"}, {"smiles": "C[C@@]1(C(=O)Nc2ccc(F)nc2)CCCN1c1nc(Nc2cc(C3CC3)[nH]n2)c2cccn2n1", "Potency": "inactive"}, {"smiles": "CN1CCN(c2ccc(-c3nc(-c4ccccc4)no3)cc2[N+](=O)[O-])CC1", "Potency": "inconclusive [inhibitor, single point]"}, {"smiles": "COc1ccccc1CSc1nc2n(n1)C(c1ccccc1)C(C(=O)Nc1ccc(C)cc1)=C(C)N2", "note": "(stereo not drawn)", "Potency": "inconclusive [inhibitor, single point]"}, {"smiles": "Cc1nnc(N2CCCC(C(=O)Nc3cccc(C(F)(F)F)c3)C2)c2nn(-c3ccccc3)c(C)c12", "note": "(stereo not drawn)", "Potency": "inconclusive [inhibitor, single point]"}, {"smiles": "Cc1cc(F)ccc1-n1nnc(C(N)=O)c1C", "Potency": "inconclusive [inhibitor, single point]"}, {"smiles": "Cc1cccc(NC(=O)c2sc3nc4c(cc3c2N)CCCCCC4)c1C", "Potency": "inactive"}, {"smiles": "CC(C)S(=O)(=O)c1oc(-c2ccc(F)cc2)nc1S(=O)(=O)c1ccccc1", "Potency": "inconclusive [inhibitor, full curve, poor fit]"}, {"smiles": "COc1ccc(NC(=O)CSc2c3c(nc4ccccc24)CCC3)cc1Cl", "Potency": "inactive"}, {"smiles": "CCOc1ccc(Oc2nc(NCC(C)C)nc(N3CCOCC3)n2)nn1", "Potency": "inactive"}, {"smiles": "COc1ccc(NC(=O)Cn2c(=O)n(CCC(=O)NCc3ccccc3OC)c(=O)c3ccccc32)cc1Cl", "Potency": "inactive"}, {"smiles": "CC(C)COc1ccc(C(=O)NCC2(N3CCN(C)CC3)CCCCC2)cc1", "Potency": "inconclusive [inhibitor, single point]"}, {"smiles": "Cc1ccccc1OCCSc1nc2ccc(NC(=O)c3ccccc3)cc2s1", "Potency": "inconclusive [inhibitor, partial curve, poor fit]"}, {"smiles": "COC(=O)c1ccccc1NC(=O)c1ncoc1-c1ccco1", "Potency": "inconclusive [inhibitor, single point]"}, {"smiles": "COC(=O)c1cccnc1-n1c(=O)c2cccnc2n(CC(=O)Nc2ccccc2F)c1=O", "Potency": "inconclusive [inhibitor, single point]"}, {"smiles": "COc1ccccc1C1Nc2ccccc2-n2c(-c3ccccc3)c3c(=O)n(C)c(=O)n(C)c3c21", "note": "(stereo not drawn)", "Potency": "inactive"}, {"smiles": "Cc1ccccc1CCNC(=O)c1ccc2c(c1)nc1n2CCC(C)C1", "note": "(stereo not drawn)", "Potency": "inactive"}, {"smiles": "C=CCc1ccccc1OCCn1c(C2CC(=O)N(Cc3ccc(F)cc3)C2)nc2ccccc21", "note": "(stereo not drawn)", "Potency": "inconclusive [inhibitor, single point]"}, {"smiles": "Cc1cccc(N(C)C(=O)c2cc(S(=O)(=O)N3CCCCC3)c[nH]2)c1", "Potency": "inactive"}, {"smiles": "COc1ccccc1C(=O)N1c2ccccc2C(C)(c2ccc(Cl)cc2)CC1(C)C", "note": "(stereo not drawn)", "Potency": "inconclusive [inhibitor, full curve, poor fit]"}, {"smiles": "COc1cccc(C(=O)Nc2nc3nc(C)c(C)c(=O)n3[nH]2)c1", "Potency": "inactive"}, {"smiles": "CCNC(=O)C1CCCN(c2nnc(C)c3c(C)n(-c4ccc(C)cc4)nc23)C1", "note": "(stereo not drawn)", "Potency": "inactive"}, {"smiles": "COc1cc(Cl)c(C)cc1NC(=O)c1ccc(CN2C(=O)CCn3nc(C)cc32)cc1", "Potency": "inconclusive [inhibitor, single point]"}]}]}
